Source: publication PMC12136788
The list shows a part of the results.

T1: UNK ZnF1-3 (human, UniProt Q9C0B0 31-174)
T1 sequence: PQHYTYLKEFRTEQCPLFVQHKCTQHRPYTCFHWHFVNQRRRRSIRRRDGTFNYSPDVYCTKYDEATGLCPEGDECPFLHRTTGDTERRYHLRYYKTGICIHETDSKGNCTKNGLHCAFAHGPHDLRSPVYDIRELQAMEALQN

B1: chr3:176767854:176767855:-_ENSG00000177565_ENST00000430069|hu_hu|hu_hu_hu_mus_False|58_78 (ssRNA)
RNA: GGGAGUUCUACAGUCCGACGAUCGACAUCCUUGUUACUGGGCACGUCCUGCCCUCCUUCUCGUAUACAGUGUCUAAGUACUAACUGCGUAGGGCCACUCGUGCUGUUCUCACUGAGGUUCCAGAUUCUUGCCGUGGAGUCUCCCAACAGAGGAUUGAGCAUCA
B2: 39662316_39662436_4025_3pUTR_ENSG00000078142_ENST00000262039|human|control|control (ssRNA)
RNA: GGGAGUUCUACAGUCCGACGAUCGUAUUUUCAUUUUUACCAUUUUUCUAAUCAGCAGGUAUGUUUUAUACAAACUAUAUUCCAUAUGCCUCUAGAGUGUCUCUUAAUUACAUGCUUGCCCUCUCGCCGGUAACCCCACUCUGACAACAGAGGAUUGAGCAUCA
B3: chr12:105536279:105536280:+_ENSG00000136051_ENST00000332180|hu_mus|hu_hu_hu_mus_True|8_38 (ssRNA)
RNA: GGGAGUUCUACAGUCCGACGAUCAGCACUGAACAUGUAAUGUAAUCUGGCUGCAUCGACAGCAUUUUCAUAUACAUCAUCUAAAUAAAUCGGGAAGACAGCUCGAUGCCAGUAUAAAAAACAGCAGUCACAUUGUGCUUGGACCAACAGAGGAUUGAGCAUCA
B4: 24728093_24728282_11095_CDS_ENSMUSG00000032855_ENSMUST00000035565|mouse|control|control (ssRNA)
RNA: GGGAGUUCUACAGUCCGACGAUCAGGGUGAAGCCGCUUGGCCACAAGGGAGAAGUAGAGGGCUUCCAGCAGGACCUUAAGGGGCUCCCAGCCAAGAAAGGAGGCCAGGAAGCUGGAGCUGCUUGAGAGAAGCCACAUGACACUCAACAGAGGAUUGAGCAUCA
B5: chr7:141441981:141441982:+_ENSG00000106028_ENST00000265304|hu_mus|hu_hu_hu_mus_False|1_38 (ssRNA)
RNA: GGGAGUUCUACAGUCCGACGAUCCUCAUGUCUUACAAACUGACGAAAUACCUGUAACACAGGUCUUCGAAACAUGGCUUCUGUUUUUCUUACAACCAGUCUAAUCUGCUUUUCCUAAAGGAAAGAAAGAAAAGAGAAGCCCAGCAACAGAGGAUUGAGCAUCA
B6: 87157000_87157120_506_3pUTR_ENSMUSG00000021252_ENSMUST00000021676|mouse|control|control (ssRNA)
RNA: GGGAGUUCUACAGUCCGACGAUCAGAGGGUGAAUGAAGAAGACAGUGGAGGUGGAAGACGAUGUUUCAGAGCUGGCAAGGCUGGCCUCAAUUUCUUUUCUUCUGUCUGGAUACUGGUUCUGCCUCUAGGUACCGGAGCCCGACCAACAGAGGAUUGAGCAUCA
B7: chr16:56712917:56712918:-_ENSMUSG00000022757_ENSMUST00000065515|mus_hu|FALSE|FALSE (ssRNA)
RNA: GGGAGUUCUACAGUCCGACGAUCAUGAUUAGCUUCCCACUUAGAUCCAACUGUCCGUUCAUGGUGGACUCCAGGAUGUUCUAUAUAUACAACUCUAGAGAAAGACCAGGACGCAUGCGCGACGGCGCGAGGCGCAGGGCUGGCCAACAGAGGAUUGAGCAUCA
B8: chr7:75932113:75932114:+_ENSG00000106211_ENST00000248553|hu_hu|hu_hu_hu_mus_False|1_108 (ssRNA)
RNA: GGGAGUUCUACAGUCCGACGAUCCUGCGACCACUCCUCGGGCAACCGGGGCACCCCGAAAGCUUGAUCGAAGAGGCGGCUGUGUGCAGGGUACCAGUCCCGGAAUGGUUCCCAGCUCGGGCUCCGCAGCAGCGAGAGGACGCGCAACAGAGGAUUGAGCAUCA
B9: chr3:179287964:179287965:+_ENSG00000136518_ENST00000429709|hu_hu|hu_hu_hu_mus_True|38_78 (ssRNA)
RNA: GGGAGUUCUACAGUCCGACGAUCCUUGAGUGGUGAGAUGGCCUCCAUGUUCUCCCUCGGAACACGCAGGGCAUUGGUGUCUAUGUAGUAGGUGGGCCCGCCUUGUUUGCCUUUGUCACCAUCAAUCUCCAUCAUUGUACUUCCCAACAGAGGAUUGAGCAUCA
B10: chr4:83122263:83122264:-_ENSMUSG00000028484_ENSMUST00000107214|mus_hu|FALSE|FALSE (ssRNA)
RNA: GGGAGUUCUACAGUCCGACGAUCAUUUGAUUGUUUAGUUGCUGCCUGUUGACUUGAAAAUUUCACUUUUGGAUUGUUAUCUAUCUCCCAUAAACCUUCAUUAAAACCUUUUCUUUUAUUUGGUUUGCCAUACUUUUCCUUAUUCAACAGAGGAUUGAGCAUCA
B11: chr7:127231458:127231459:+_ENSG00000004059_ENST00000000233|hu_mus|FALSE|FALSE (ssRNA)
RNA: GGGAGUUCUACAGUCCGACGAUCUCCAGGCUCCAACGACAAGAGAGAGCAUGCAGGCAGGCGCAGGAGCAGAGGCCUGUCUGUGGGGAGGAAGAGUGGGGAGGAAGGGCACUGCCUGAGGAGUCCGGGAGUCUGGUCAUCCCGCAACAGAGGAUUGAGCAUCA
B12: chr6:30692278:30692279:+_ENSG00000196230_ENST00000327892|hu_mus|FALSE|FALSE (ssRNA)
RNA: GGGAGUUCUACAGUCCGACGAUCUCAGAGUGGAAAGAGAAAGGAGACAUUCCACAAACAAAUAUUUAUUGAGUGCCUGCCAUGUGCCAGGCACCAUUUACCCCCAAUGAGAAAACAGAACAAAACAAAUACAAGACAGAGGCACAACAGAGGAUUGAGCAUCA
B13: chr3:10015032:10015033:+_ENSMUSG00000027533_ENSMUST00000029046|mus_mus|mus_mus_mus_hu_True|8_8 (ssRNA)
RNA: GGGAGUUCUACAGUCCGACGAUCGUUUUUACCAUCACAAGUGAUGAUACAAUCUGGCUUGGCCAUUGCGCCCAUUUUUCGCAAAGCUAUUCCCACUCCUAGCUCCUUCAUGUAUUCAUCAAAGCCUUGGCUUUCCACCAGGCGCAACAGAGGAUUGAGCAUCA
B14: 27671025_27672237_8332_CDS_ENSMUSG00000022263_ENSMUST00000090247|mouse|control|control (ssRNA)
RNA: GGGAGUUCUACAGUCCGACGAUCGUUAAGAAGCUUCACAGAUACCUUGUUACUGAGCCCUUCUCGUGGCUUCCUGUACCCAUUCUCCAACUUGCCAUCCCUUUUGCCGUCUUUAUCUUUCUUCUCAGACUUCUUCCUUAAACGCAACAGAGGAUUGAGCAUCA
B15: chr11:87793471:87793472:-_ENSMUSG00000020483_ENSMUST00000020775|mus_mus|mus_mus_mus_hu_False|8_18 (ssRNA)
RNA: GGGAGUUCUACAGUCCGACGAUCUGGACUUGAAAAUAAAAGAAUAAGCUGGAUCCCCCACCCCCCCACAUUGUCAACCCUACACGAGAGUUUUGAAGGCGACUCAUGAAAAUCAGCCUCAAUUGGCAAUGACAACCCCCCACCCAACAGAGGAUUGAGCAUCA
B16: chr14:78183846:78183847:+_ENSG00000119705_ENST00000557342|hu_hu|hu_hu_hu_mus_False|38_38 (ssRNA)
RNA: GGGAGUUCUACAGUCCGACGAUCUCUCAGAAAUCUUUCUUCAUCAGAUGUUUGAGCUCCGUGCAAAGCCUUUGCUCUUUGAGCUUGAACGUGGAUCUUUACUCCAUAAAGCACUGUCAGAAAAGGUAAUUUUUUUUUUAAAGACAACAGAGGAUUGAGCAUCA
B17: 100621730_100624656_1126_CDS_ENSMUSG00000028532_ENSMUST00000030257|mouse|control|control (ssRNA)
RNA: GGGAGUUCUACAGUCCGACGAUCGACUAUGUGCUUGGACUGUGGCCGGACGGUAGAGACGUAGAUGGGUCGACUGCGGUGCUCGUAGCUGCCCUUACACCGGAACUUGUGUGCUGGGAAGACGGUGAAAAUCCCUUCUUCUGACAACAGAGGAUUGAGCAUCA
B18: chr12:39763582:39763583:-_ENSG00000139116_ENST00000544797|hu_mus|hu_hu_hu_mus_False|28_68 (ssRNA)
RNA: GGGAGUUCUACAGUCCGACGAUCCUCUAGGAACUGGGCAUUCACUUUGAAUUCAGGAGGGGGCAGCCCAUUUUUAAUCGCUGAGGUCUUUUUCUCAUCAAUACUCUUAAAAAGGUGUCUAACAGCACGAGAGAUGAUGCCCUGCAACAGAGGAUUGAGCAUCA
B19: chr15:103023242:103023243:-_ENSMUSG00000009575_ENSMUST00000118152|mus_hu|motif|central (ssRNA)
RNA: GGGAGUUCUACAGUCCGACGAUCAACAUCUGAACUAGCAGCUUUGAUGAGGGGUGGGGGGCAGAAAAUUUGCCGAGUCACGGAGUAGUUCCAGUCUUGGAGACAGCUCAGUGAGGACCAAAGCCUGUGUGUCAGGCUUAAACUCAACAGAGGAUUGAGCAUCA
B20: chr3:20019835:20019836:+_ENSG00000144566_ENST00000273047|hu_hu|FALSE|FALSE (ssRNA)
RNA: GGGAGUUCUACAGUCCGACGAUCCAUGAAUAUUUCAUUUACAUUCAUUGAUGUUUUAGCGGAUGUCUCCAUGAAUAAUAAACUAUUGUCAUCUGCAUAGGACUGUGCUUCCUGGAAAUCUACUGCUCUUUUAUUUGCUAGGUCCAACAGAGGAUUGAGCAUCA
B21: chrX:71549400:71549401:+_ENSMUSG00000019087_ENSMUST00000019231|mus_hu|mus_mus_mus_hu_False|1_38 (ssRNA)
RNA: GGGAGUUCUACAGUCCGACGAUCGCAGUAGGAAGAGGGAAGCUCUUCAGUCCAGUGCGCUGCAGGGUGGGAAAGCAACAACACGGACACCGUCCCACCUCAAUUCCCCCCACUGGCACAGGGUCACACAAUCUGGGAAGUGAUCAACAGAGGAUUGAGCAUCA
B22: chr3:150289932:150289933:+_ENSG00000144895_ENST00000460851|hu_hu|FALSE|FALSE (ssRNA)
RNA: GGGAGUUCUACAGUCCGACGAUCUUUGUAGUUUUUCACAUCCCACACUUCCAUUUGUCCCCUCAGAUUUCCAAAUCCAGCUAAUACUAAUAUAUGUCCAUGAGGGCUAUAGUAGGCUGCAUUACGAGGACCAGUUCCAAAGUCCAACAGAGGAUUGAGCAUCA

These binders were tested against T1, UNK ZnF1-3 (assay: nsRBNS (natural sequence RNA bind-n-seq); RBNS binding buffer (assumed for nsRBNS): 25 mM Tris pH 7.5, 150 mM KCl, 3 mM MgCl2, 0.01% Triton X-100, 500 ug/ml BSA, 20 U/ml SUPERase-In, 4 C; UNK is unkempt and MSI1 is Musashi-1; names of the RNAs are library labels; protein concentration not given here; high values mean tight binding).

Row | Binder | binding signal
1 | B1 | 0.551 enrichment R
2 | B2 | 0.617 enrichment R
3 | B3 | 3.02 enrichment R
4 | B4 | 1.01 enrichment R
5 | B5 | 0.521 enrichment R
6 | B6 | 1.35 enrichment R
7 | B7 | 1.02 enrichment R
8 | B8 | 0.679 enrichment R
9 | B9 | 0.432 enrichment R
10 | B10 | 0.439 enrichment R
11 | B11 | 3.06 enrichment R
12 | B12 | 1.92 enrichment R
13 | B13 | 0.688 enrichment R
14 | B14 | 0.481 enrichment R
15 | B15 | 2.07 enrichment R
16 | B16 | 0.883 enrichment R
17 | B17 | 0.812 enrichment R
18 | B18 | 1.81 enrichment R
19 | B19 | 1.45 enrichment R
20 | B20 | 0.593 enrichment R
21 | B21 | 1.14 enrichment R
22 | B22 | 1.05 enrichment R
